Source: paper PMC9008061
No constants are given. Whether binding was seen depends on the method and setting. In cells and extracts the contact can be indirect. Some binding calls cover weakened binding; strength is not graded here. Sequences can lack the tags named with a protein.

By UniProt entry, the sequences of proteins in these tests, tags left out. Where a name states a change or a piece, a line headed by the entry shows the natural chain unless it says otherwise.
UniProt P43694: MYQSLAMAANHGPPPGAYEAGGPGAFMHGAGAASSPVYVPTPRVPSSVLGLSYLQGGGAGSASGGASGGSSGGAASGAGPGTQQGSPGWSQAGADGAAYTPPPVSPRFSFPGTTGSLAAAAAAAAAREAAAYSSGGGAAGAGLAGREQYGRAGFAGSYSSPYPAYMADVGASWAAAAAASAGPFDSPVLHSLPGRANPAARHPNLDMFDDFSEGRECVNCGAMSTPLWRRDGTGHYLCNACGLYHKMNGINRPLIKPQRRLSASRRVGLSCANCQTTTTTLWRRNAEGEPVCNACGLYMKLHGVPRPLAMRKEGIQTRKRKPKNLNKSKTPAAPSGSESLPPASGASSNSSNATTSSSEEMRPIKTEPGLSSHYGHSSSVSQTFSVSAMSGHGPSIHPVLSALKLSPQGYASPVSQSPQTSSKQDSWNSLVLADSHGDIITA

T1: FLAG-tagged estrogen-related receptor γ (ERRγ), adenovirally overexpressed (human) (UniProt P62508)
T1 sequence: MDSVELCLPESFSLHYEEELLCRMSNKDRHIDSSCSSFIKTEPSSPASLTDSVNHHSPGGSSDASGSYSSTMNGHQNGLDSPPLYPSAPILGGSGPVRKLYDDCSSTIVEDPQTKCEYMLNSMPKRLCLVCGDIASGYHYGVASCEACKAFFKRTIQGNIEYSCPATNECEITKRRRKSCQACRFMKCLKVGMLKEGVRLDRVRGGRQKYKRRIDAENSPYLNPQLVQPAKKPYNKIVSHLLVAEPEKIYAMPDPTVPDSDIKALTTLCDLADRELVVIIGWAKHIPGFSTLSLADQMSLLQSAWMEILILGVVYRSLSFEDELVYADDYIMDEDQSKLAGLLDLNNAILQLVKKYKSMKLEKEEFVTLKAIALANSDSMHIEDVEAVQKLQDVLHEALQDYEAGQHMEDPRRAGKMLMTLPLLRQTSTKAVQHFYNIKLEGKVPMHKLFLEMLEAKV

T2: 3xFLAG-tagged estrogen-related receptor γ (3xFLAG-ERRγ) (human) (UniProt P62508)
T2 sequence: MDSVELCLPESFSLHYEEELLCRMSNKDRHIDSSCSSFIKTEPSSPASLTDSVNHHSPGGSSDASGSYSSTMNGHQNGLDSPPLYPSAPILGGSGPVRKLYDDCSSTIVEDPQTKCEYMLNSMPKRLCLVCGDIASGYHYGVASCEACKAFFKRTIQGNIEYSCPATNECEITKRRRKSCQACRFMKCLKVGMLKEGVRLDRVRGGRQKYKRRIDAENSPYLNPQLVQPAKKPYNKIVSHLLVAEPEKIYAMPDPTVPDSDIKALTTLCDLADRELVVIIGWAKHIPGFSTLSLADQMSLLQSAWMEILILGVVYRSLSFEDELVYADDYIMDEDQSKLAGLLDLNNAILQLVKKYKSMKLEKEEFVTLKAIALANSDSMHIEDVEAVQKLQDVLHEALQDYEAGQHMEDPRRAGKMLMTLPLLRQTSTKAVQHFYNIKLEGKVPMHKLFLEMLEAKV


How the values were obtained:
[1] = target: T1, FLAG-tagged estrogen-related receptor γ (ERRγ), adenovirally overexpressed (human); assay: co-IP; nuclear lysate of hiPSC-CMs overexpressing FLAG-ERRγ by adenovirus; lysis buffer 10 mM HEPES pH7.9, 3 mM MgCl2, 5 mM KCl, 150 mM NaCl, 0.5% NP-40, benzonase; antibody-conjugated magnetic beads, 90 min at 4 °C; immunoblot
[2] = target: T2, 3xFLAG-tagged estrogen-related receptor γ (3xFLAG-ERRγ) (human); assay: co-IP; nuclear lysate of AD-293 transfected with GATA4-HA, 3xFLAG-ERRγ and PGC-1α-Myc/His; lysis buffer 10 mM HEPES pH7.9, 3 mM MgCl2, 5 mM KCl, 150 mM NaCl, 0.5% NP-40, benzonase; IP with antibodies to FLAG or HA epitope tags on magnetic beads, 30 min at 4 °C; immunoblot
[3] = target: HA-tagged GATA-binding protein 4 (GATA4-HA) (human) (UniProt P43694); assay: as above

binding [1] | binding [2] | binding [3] | Molecule
binds | – | – | endogenous GATA-binding protein 4 (GATA4) of hiPSC-CMs (from UniProt P43694 1-442)
– | binds | – | HA-tagged GATA-binding protein 4 (GATA4-HA) (from UniProt P43694-1 1-442)
– | binds | – | HA-tagged GATA4 G296S mutant (from UniProt P43694-1 1-442)
– | binds | no binding | peroxisome proliferator-activated receptor gamma coactivator 1 α tagged with Myc/His (PGC-1α-Myc/His) (protein, UniProt O70343 1-797) MAWDMCSQDSVWSDIECAALVGEDQPLCPDLPELDLSELDVNDLDTDSFLGGLKWCSDQSEIISNQYNNEPANIFEKIDEENEANLLAVLTETLDSLPVDEDGLPSFDALTDGAVTTDNEASPSSMPDGTPPPQEAEEPSLLKKLLLAPANTQLSYNECSGLSTQNHAANHTHRIRTNPAIVKTENSWSNKAKSICQQQKPQRRPCSELLKYLTTNDDPPHTKPTENRNSSRDKCASKKKSHTQPQSQHAQAKPTTLSLPLTPESPNDPKGSPFENKTIERTLSVELSGTAGLTPPTTPPHKANQDNPFKASPKLKPSCKTVVPPPTKRARYSECSGTQGSHSTKKGPEQSELYAQLSKSSGLSRGHEERKTKRPSLRLFGDHDYCQSLNSKTDILINISQELQDSRQLDFKDASCDWQGHICSSTDSGQCYLRETLEASKQVSPCSTRKQLQDQEIRAELNKHFGHPCQAVFDDKSDKTSELRDGDFSNEQFSKLPVFINSGLAMDGLFDDSEDESDKLSYPWDGTQPYSLFDVSPSCSSFNSPCRDSVSPPKSLFSQRPQRMRSRSRSFSRHRSCSRSPYSRSRSRSPGSRSSSRSCYYYESSHYRHRTHRNSPLYVRSRSRSPYSRRPRYDSYEAYEHERLKRDEYRKEHEKRESERAKQRERQKQKAIEERRVIYVGKIRPDTTRTELRDRFEVFGEIEECTVNLRDDGDSYGFITYRYTCDAFAALENGYTLRRSNETDFELYFCGRKQFFKSNYADLDTNSDDFDPASTKSKYDSLDFDSLLKEAQRSLRR
